# Measured values taken from article PMC4336329 (PLoS ONE, 2015).
# Hit rate of the full screen: of about 310,000 compounds, about 2,200 (0.71%) showed an effect of 50% or more. The effect is printed as a negative number. This is one part of the list.
# Molecular target: human ether-à-go-go-related gene (hERG) potassium channel (human, UniProt Q12809)
# Experiment: primary screen, population patch clamp on CHO cells stably expressing hERG
# Chain of human ether-à-go-go-related gene (hERG) potassium channel (Q12809 whole entry, looked up): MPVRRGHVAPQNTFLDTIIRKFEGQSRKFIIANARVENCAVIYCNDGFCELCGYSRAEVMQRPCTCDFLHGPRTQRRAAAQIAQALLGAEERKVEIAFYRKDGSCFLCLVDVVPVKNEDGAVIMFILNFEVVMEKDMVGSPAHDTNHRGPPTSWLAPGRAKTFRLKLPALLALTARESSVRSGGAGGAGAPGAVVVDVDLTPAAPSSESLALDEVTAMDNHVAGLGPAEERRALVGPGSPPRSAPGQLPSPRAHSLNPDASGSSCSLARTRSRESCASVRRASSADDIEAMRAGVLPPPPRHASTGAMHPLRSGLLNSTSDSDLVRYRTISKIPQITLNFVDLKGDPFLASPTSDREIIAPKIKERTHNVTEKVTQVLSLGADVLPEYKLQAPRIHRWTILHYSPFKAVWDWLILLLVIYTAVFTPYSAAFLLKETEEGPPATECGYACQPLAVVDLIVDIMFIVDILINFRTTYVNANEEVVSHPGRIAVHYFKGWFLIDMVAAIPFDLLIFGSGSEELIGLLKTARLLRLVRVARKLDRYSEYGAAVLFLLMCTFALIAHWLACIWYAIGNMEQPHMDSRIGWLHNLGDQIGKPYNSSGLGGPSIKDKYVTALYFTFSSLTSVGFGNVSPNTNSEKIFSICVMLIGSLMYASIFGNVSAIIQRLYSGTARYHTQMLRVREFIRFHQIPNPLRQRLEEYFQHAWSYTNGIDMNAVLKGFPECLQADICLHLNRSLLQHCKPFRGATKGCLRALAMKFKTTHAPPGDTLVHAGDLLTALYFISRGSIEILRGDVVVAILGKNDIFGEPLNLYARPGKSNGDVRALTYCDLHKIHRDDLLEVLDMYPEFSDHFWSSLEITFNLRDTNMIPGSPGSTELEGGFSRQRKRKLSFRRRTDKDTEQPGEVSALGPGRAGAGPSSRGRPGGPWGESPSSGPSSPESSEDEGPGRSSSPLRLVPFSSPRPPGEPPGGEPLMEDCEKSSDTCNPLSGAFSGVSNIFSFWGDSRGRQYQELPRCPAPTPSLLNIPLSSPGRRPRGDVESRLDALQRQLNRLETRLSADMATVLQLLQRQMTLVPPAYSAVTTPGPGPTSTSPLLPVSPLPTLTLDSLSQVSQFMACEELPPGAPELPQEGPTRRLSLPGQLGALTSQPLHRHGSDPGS
row,Compound,"hERG current change (%, negative = inhibition) at 1uM"
1,COC(=O)C1=C(C)NC(C)=C(C(=O)OCC2CCCO2)C1c1ccc(Cl)c([N+](=O)[O-])c1 (stereo not shown),4.23%
2,Cc1ccc(Cl)c(Nc2ccccc2C(=O)[O-])c1Cl.[Na+],-2.92%
3,CN1CCN(C2=C(Cl)C(=O)N(c3ccc(Cl)cc3)C2=O)CC1,6.47%
4,O=[N+]([O-])c1ccc(N2CCCC2)c2ccncc12,12.9%
5,CCCCn1cnc2c(c(-c3ccccc3)c(-c3ccccc3)n2Cc2ccco2)c1=N,-45.6%
6,CCCCOP(=O)(c1ccc(N(C)C)cc1)C(Nc1ccccc1)c1ccccc1 (stereo not shown),2.32%
7,O=C(Cc1cn(Cc2cccc(Cl)c2)c2ccccc12)N1CCCCCC1,7.31%
8,CCOC(=O)c1c(NC(=O)CCN2C(=O)c3ccccc3C2=O)sc(C(=O)OC(C)C)c1C,-0.128%
9,Cc1nnc(C)c2c(C)n(N)c(C)c12,4.5%
10,COc1ccccc1P(=O)(c1ccccc1)c1ccccc1NC(C)=O (stereo not shown),13.7%
11,O=C(Nc1nc2c(Br)cc(Br)cc2c(=O)s1)c1ccco1,13%
12,C=CCN1C(=Nc2ccccc2)SC/C1=C\C(=O)OC,9.65%
13,O=C(O)COc1ccccc1/C=N/NC(=O)CNC(=O)c1ccco1,11%
14,CCCNC(=O)NC(=O)COC(=O)CNS(=O)(=O)/C=C/c1ccccc1,14.5%
15,O=C(Cn1ncc2c3ccccc3n(Cc3ccccc3)c2c1=O)N1CCN(c2ncccn2)CC1,11.4%
16,COc1ccc(C(C)=O)c(OC(=O)c2ccco2)c1,10.9%
17,O=S(c1ccc2ccccc2c1)c1cnns1 (stereo not shown),17.6%
18,CCOc1ccc(NC(=O)NNC(=O)C2CCC(C(C)(C)C)CC2)cc1 (stereo not shown),13.6%
19,CCOc1ccc(NC(=O)N2CCN(Cc3ccc4c(c3)OCO4)CC2)cc1,3.52%
20,CC(=O)N1CCC(C(=O)Nc2ccc(S(=O)(=O)N3CCCCC3)cc2)CC1,-6.47%

row,Compound,"hERG current change (%, negative = inhibition) at 1uM"
1,CCc1ccc(-n2c([O-])c(C(C)=O)c(=O)[nH]c2=O)cc1.C[NH+](C)C,14.1%
2,C/C(=C\C(=O)c1ccc(Br)cc1)NNC(=O)c1ccc(O)cc1,13.3%
3,Cc1ccc(NC(=O)CCS(=O)(=O)c2ccccc2)cc1S(=O)(=O)N1CCOCC1,7.17%
4,CC(NC(=O)C1CCC(CNS(=O)(=O)c2ccccc2)CC1)c1ccc2c(c1)OCCO2 (stereo not shown),-2.71%
5,COCCCN1C(=O)c2ccc(C(=O)OCC(=O)N3CCN(c4ccccc4)CC3)cc2C1=O,-3.38%
6,COc1ccc(C(=O)N(C)C(C)c2ccon2)cc1OC1CCN(C(C)C)CC1 (stereo not shown),9%
7,COC(=O)C1=C(C)N(c2ccc(OC)cc2)C(=O)/C1=C\c1cccs1,5.58%
8,Cc1cccc(CN2CCc3c([nH]c4ccccc34)C2C(C)(C)C)n1 (stereo not shown),12.3%
9,COc1ccc(S(=O)(=O)NC2CCN(Cc3ccccc3)CC2)cc1NC(C)=O,3.79%
10,S=C(Nc1ccc(Br)cc1Cl)N1CCC2(CC1)OCCO2,9.71%
11,O=C(Cc1cccs1)Nc1ccon1,23%
12,O=C(CSc1nnc(CNC(=O)C23CC4CC(CC(C4)C2)C3)n1-c1ccccc1)Nc1ccc(F)cc1,7.62%
13,CS(=O)(=O)N(CCC#N)Cc1ccco1,15.2%
14,CC(=O)NCCn1c(C)cc2ccccc21,-28%
15,O=c1c(Cc2ccc(F)cc2)c(O)ccn1CCc1cnc[nH]1,11%
16,COc1ccc(C(=O)Nc2scc(-c3ccc(Cl)cc3Cl)c2C(N)=O)cc1,10.2%
17,O=C(COc1ccc([N+](=O)[O-])cc1)NCc1ccncc1,-4.5%
18,O=C(CNC(=O)c1ccc(Br)o1)NNC(=O)c1ccc(Br)cc1,-19.6%
19,Fc1cccc(Cn2cc(C(=S)N3CCOCC3)c3ccccc32)c1,-1.89%
20,CNC(=S)NNC(=O)CSCc1c(Cl)cccc1Cl,17.1%

row,Compound,"hERG current change (%, negative = inhibition) at 1uM"
1,COc1ccc(C(=O)NCC(=O)N2CCc3ccccc3C2)cc1,8.72%
2,NC(=O)c1ccccc1NC(=O)c1cccc(C(=O)Nc2ccccc2C(N)=O)n1,13%
3,CCCC(=O)Nn1cnc2c(c1=O)C1(CCCC1)Cc1ccccc1-2,5.41%
4,O=C1CCCC/C1=C/Nc1ccc(C(=O)O)cc1,-6.63%
5,CCn1c(-c2ccc(C)cc2)n[nH]c1=S,12%
6,CCN(CC)CCN(C(=O)c1cccc([N+](=O)[O-])c1)c1nc2ccc(OC)cc2s1.Cl,-9.58%
7,COc1ccc2c(c1)cc(C(=O)N[C@@H](CCSC)C(=O)N1CCC[C@H]1C(=O)O)n2C,-6.66%
8,Cc1ccc(NC(=S)Nc2cccc3cnccc23)cc1,0.785%
9,Cc1nnc(N/N=C/c2ccc([N+](=O)[O-])cc2)n1N,12%
10,CCCc1ccc(Oc2cc(N3CCOCC3)nc(-c3ccccc3)n2)cc1,15.7%
11,Cc1cc(-n2[nH]c(C)c(C)c2=O)nc(-c2ccccc2O)n1,12.8%
12,Cc1c(C(=O)N2CCOCC2)sc(NC(=O)CCl)c1C#N,6.58%
13,Cc1cccc(N(Cc2nnc3n2CCCCC3)C(=O)Nc2ccccc2)c1,1.47%
14,Cc1cc2ccccc2n1CCNC(=O)Cc1ccccc1,2.53%
15,Oc1c(Cl)cc(CN2CCCCC2)c2cccnc12,13.1%
16,COCCn1c(SCC(=O)N2CCCCC2)nc2ccccc2c1=O,-30.8%
17,CCOc1cccc(CNCCSc2nnnn2C)c1.Cl,13.8%
18,Cc1cc(C)c(C(=O)CSc2nnc(-c3cccnc3)n2C)c(C)c1,-12.5%
